{"source": "PubChem BioAssay AID588591", "about": "(National Center for Advancing Translational Sciences (NCATS), 2011)", "note": "Among all 390,000 compounds or so, about 4,700 (1.2%) were called active. The inconclusive results got no clear call from the source; some entries with a clear call stand among them for comparison. Calls follow the shape of the dose curve; as a rule, active = well fitted inhibition curve with a large enough effect; inconclusive = small, poorly fitted or top-dose-only effect, or another doubt; inactive = no such curve, though single readings can be large or run the other way. A potency beside an inconclusive call is a rough fit, not a confirmed value. Potency is read from the fitted curve at half-maximal effect; tags tell the direction and shape of the fitted curve."}
{"biological_target": "DNA polymerase eta (Homo sapiens) (UniProt Q9Y253)", "sequence (Q9Y253 whole entry, looked up)": "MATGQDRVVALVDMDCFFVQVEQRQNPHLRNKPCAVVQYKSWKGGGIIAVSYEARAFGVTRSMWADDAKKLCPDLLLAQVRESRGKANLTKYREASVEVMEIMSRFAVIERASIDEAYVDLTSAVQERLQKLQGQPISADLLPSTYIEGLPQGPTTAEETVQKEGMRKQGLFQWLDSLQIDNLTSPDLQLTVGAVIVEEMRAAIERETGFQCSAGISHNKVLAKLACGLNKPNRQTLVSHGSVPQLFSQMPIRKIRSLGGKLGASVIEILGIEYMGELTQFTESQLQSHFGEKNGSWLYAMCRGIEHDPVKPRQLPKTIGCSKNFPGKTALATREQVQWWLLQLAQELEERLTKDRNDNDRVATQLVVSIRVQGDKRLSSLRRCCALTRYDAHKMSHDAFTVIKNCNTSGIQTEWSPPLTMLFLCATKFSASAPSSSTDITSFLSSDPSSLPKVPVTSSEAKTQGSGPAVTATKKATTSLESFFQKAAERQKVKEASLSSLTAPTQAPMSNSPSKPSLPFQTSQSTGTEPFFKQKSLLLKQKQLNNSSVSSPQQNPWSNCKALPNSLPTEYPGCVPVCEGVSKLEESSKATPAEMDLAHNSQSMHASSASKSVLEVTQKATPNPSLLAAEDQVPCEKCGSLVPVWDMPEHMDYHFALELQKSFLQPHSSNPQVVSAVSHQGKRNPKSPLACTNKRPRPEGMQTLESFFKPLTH", "test": "qHTS for Inhibitors of Polymerase Eta", "settings": "recombinant Pol eta, fluorescent DNA replication assay; series mostly up to 114 µM", "in_short": "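Fluorescent replication assay: 50 nM final substrate added after a 15 min room-temperature compound preincubation with 10 nM enzyme. Signal taken at 0 min and again at 10 min.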"}
{"smiles": "CCc1nn(CC(=O)N(C)Cc2ccccc2)c(=O)c2cc3sccc3n12", "Potency": "inactive"}
{"smiles": "Cc1ccc(CSCCC(=O)NCc2ccc(F)cc2Cl)cc1", "Potency": "inactive"}
{"smiles": "COC(=O)c1sccc1S(=O)(=O)N(CC(=O)Nc1ccccc1F)c1ccccc1", "Potency": "inactive"}
{"smiles": "O=C(Cn1cc(C(F)(F)F)cc(Cl)c1=O)NCc1ccc(F)cc1", "Potency": "inconclusive: 89.1 µM [inhibitor, partial curve, poor fit]"}
{"smiles": "CCOC(=O)c1c(C)[nH]c(N=Nc2ccccc2Cl)c1C", "Potency": "inactive"}
{"smiles": "CCC(=O)Nc1cccc(C(=O)/C=C/c2cccs2)c1", "Potency": "inconclusive: 50.1 µM [inhibitor, partial curve, poor fit]"}
{"smiles": "O=C(CN1CCN(C(=O)c2ccccc2)CC1)Nc1ccccc1", "Potency": "inactive"}
{"smiles": "COc1ccc(CCNC(=O)c2cc(-c3cc(C)c(C)cc3O)n[nH]2)cc1OC", "Potency": "inconclusive: 31.6 µM [inhibitor, single point]"}
{"smiles": "O=C(CSc1ccc(Cl)cc1)Nc1ccccc1Oc1ccccc1", "Potency": "inconclusive: 28.2 µM [inhibitor, partial curve, poor fit]"}
{"smiles": "COc1ccc2c3c(cccc13)N(C)N=C2C", "Potency": "inconclusive: 22.4 µM [inhibitor, partial curve]"}
{"smiles": "O=C(NN1C(=O)/C(=C/c2cccc(O)c2)SC1=S)c1ccccc1O", "Potency": "inconclusive: 56.2 µM [inhibitor, partial curve, poor fit]"}
{"smiles": "COc1ccc(C(=O)c2sc3nc(-c4ccc(F)cc4)ccc3c2N)cc1", "Potency": "inactive"}
{"smiles": "CC(C)C[C@H](NC(=O)c1nc[nH]c1C(=O)NCC(=O)OC(C)(C)C)C(=O)OC(C)(C)C", "Potency": "inconclusive: 6.31 µM [inhibitor, partial curve, poor fit]"}
{"smiles": "COc1ccc(C(=O)NC(C(=O)OCC(=O)Nc2sccc2C(N)=O)C(C)C)cc1", "note": "(configuration not stated)", "Potency": "active: 89.1 µM"}
{"smiles": "CCOc1ccc2oc(C(=O)Nc3cc(C)ccn3)c(C)c2c1", "Potency": "inconclusive: 39.8 µM [inhibitor, partial curve, poor fit]"}
{"smiles": "O=C(c1cc(-c2cccnc2)nc2ccc(Cl)cc12)N1CCN(S(=O)(=O)c2cccs2)CC1", "Potency": "inconclusive: 31.6 µM [inhibitor, partial curve, poor fit]"}
{"smiles": "COC(=O)c1cc([N+](=O)[O-])c(-n2ccnc2)c([N+](=O)[O-])c1", "Potency": "inconclusive: 2.82 µM [inhibitor, partial curve, poor fit]"}
{"smiles": "Cc1ccc2[nH]c(C(=O)N3CCN(C(c4ccccc4)c4ccccc4)CC3)cc2c1", "Potency": "inactive"}
{"smiles": "COC(=O)c1ccccc1NC(=O)c1cc2nc(C3CC3)cc(C(F)(F)F)n2n1", "Potency": "active: 79.4 µM"}
{"smiles": "O=C(O)c1cccc(NC2=C(Cl)C(=O)c3ccccc3C2=O)c1", "Potency": "active: 79.4 µM"}
{"smiles": "COc1ccccc1NC(=O)CN1C(=O)c2ccccc2Sc2ccc(C(=O)N3CCCC3)cc21", "Potency": "active: 79.4 µM"}
{"smiles": "COC(=O)c1c(NC(=O)c2cccnc2Cl)sc(C(=O)N(C)C)c1C", "Potency": "inconclusive: 31.6 µM [inhibitor, partial curve, poor fit]"}
{"smiles": "Nc1ccc(N2CCCCC2)cc1N1CCCCC1", "Potency": "inactive"}
{"smiles": "O=C(N/N=C1/CCSC1)c1cc(Br)ccc1O", "Potency": "inconclusive: 89.1 µM [inhibitor, partial curve, poor fit]"}
{"smiles": "Fc1ccc(-c2csc(=S)[nH]2)cc1", "Potency": "inactive"}
{"smiles": "CN1C(=O)CSC1=S", "Potency": "inactive"}
{"smiles": "Cc1ccccc1C1C(C#N)=C2N=C(N)c3ccccc3N2C2=C1C(=O)CCC2", "note": "(configuration not stated)", "Potency": "inconclusive: 89.1 µM [inhibitor, partial curve, poor fit]"}
{"smiles": "CCOC(=O)c1c(NC(=O)c2cc3nc(-c4ccc(Br)cc4)cc(C(F)(F)F)n3n2)sc(C(C)=O)c1C", "Potency": "inactive"}
{"smiles": "O=C(c1ccc(F)cc1)N1CCN=C1c1ccccc1", "Potency": "inconclusive: 89.1 µM [inhibitor, partial curve, poor fit]"}
{"smiles": "O=C1CSC(=S)N1N=Cc1ccccc1O", "Potency": "inconclusive: 28.2 µM [inhibitor, partial curve, poor fit]"}
{"smiles": "Nc1ncnc2c1ncn2[C@@H]1O[C@H](CNCc2ccc(-n3cccn3)cc2)[C@@H](O)[C@H]1O", "Potency": "inactive"}
{"smiles": "Cc1cc(C)c(C(=O)OCC(=O)Nc2cccc(S(=O)(=O)N3CCCCC3)c2)c(C)c1", "Potency": "inconclusive: 31.6 µM [inhibitor, single point]"}
{"smiles": "O=C(C1=C(O)C(=O)N(CCN2CCOCC2)C1c1cccc(Br)c1)c1cc2ccccc2o1", "note": "(configuration not stated)", "Potency": "inconclusive: 20 µM [inhibitor, partial curve, poor fit]"}
{"smiles": "O=C(COC(=O)/C=C/c1cccc(F)c1)Nc1ncccn1", "Potency": "active: 28.2 µM"}
{"smiles": "C=CCNC(=O)NC(=O)COC(=O)/C=C/c1cccc([N+](=O)[O-])c1", "Potency": "inactive"}
{"smiles": "CCN(CC)c1ccc(C(=O)NCc2ccc3c(c2)CCN3C(=O)c2ccc(F)cc2)cc1", "Potency": "active: 79.4 µM"}
{"smiles": "COC(=O)[C@@H]1CC(O)CN1C(=O)C12CC3CC(CC(C3)C1)C2", "note": "(some centres not stated)", "Potency": "inconclusive: 35.5 µM [inhibitor, single point]"}
{"smiles": "O=C(O)C1CCN(C(=O)CCc2ccccc2)CC1", "Potency": "inactive"}
{"smiles": "O=C(Nc1cccc(-c2cc3ccccc3oc2=O)c1)c1ccc(Br)o1", "Potency": "inconclusive: 17.8 µM [inhibitor, partial curve]"}
{"smiles": "O=C(CC1c2ccccc2Oc2ccccc21)Nc1ccccc1C(F)(F)F", "Potency": "inactive"}
{"smiles": "O=C(O)c1cc(Cl)c2c(c1)OCO2", "Potency": "active: 22.4 µM"}
{"smiles": "O=C(CNC(=O)c1ccc(Cl)cc1Cl)OCc1cn2cc(Br)ccc2n1", "Potency": "inactive"}
{"smiles": "CCN1CCN(C(=O)Cn2nc(-c3ccc(Cl)cc3)ccc2=O)CC1", "Potency": "inactive"}
{"smiles": "CCCCNC(=S)N/N=C/C1=CCC2CC1C2(C)C", "note": "(configuration not stated)", "Potency": "inconclusive: 79.4 µM [inhibitor, partial curve, poor fit]"}
{"smiles": "O=C(Nc1cccc([N+](=O)[O-])c1)Nn1cnnc1", "Potency": "inconclusive: 100 µM [inhibitor, partial curve, poor fit]"}
{"smiles": "CC1CCN(Cc2c(O)ccc3c2O/C(=C\\c2ccco2)C3=O)CC1", "Potency": "active: 56.2 µM"}
{"smiles": "Cc1cccc(NC(=O)C2CCCN(S(=O)(=O)c3cnc[nH]3)C2)c1C", "note": "(configuration not stated)", "Potency": "inactive"}
{"smiles": "CCC(C)NC(=O)c1cnn(-c2ccc(Cl)cc2)c1C1CCN(C(=O)OC(C)(C)C)CC1", "note": "(configuration not stated)", "Potency": "inactive"}
{"smiles": "COc1ccc(S(=O)(=O)NC(C)c2ccccc2)cc1C(=O)N1CCCCC1", "note": "(configuration not stated)", "Potency": "inactive"}
{"smiles": "O=C(NCCc1ccc(Cl)cc1)c1ccc(CS(=O)Cc2cccc(Cl)c2)o1", "note": "(configuration not stated)", "Potency": "inactive"}
{"smiles": "Nc1cccc2c(O)cc(S(=O)(=O)O)cc12", "Potency": "active: 2.82 µM"}
{"smiles": "COc1ccc(N2CCN(C(CNC(=O)C(=O)NCc3cccs3)c3ccco3)CC2)cc1", "note": "(configuration not stated)", "Potency": "inconclusive: 89.1 µM [inhibitor, partial curve, poor fit]"}
{"smiles": "O=Cc1ccc(-c2ccc(C(=O)O)cc2)o1", "Potency": "inconclusive: 22.4 µM [inhibitor, full curve]"}
{"smiles": "CCCCNS(=O)(=O)c1ccc2nc(-c3cccnc3)cc(C(=O)NCC(OC)OC)c2c1", "Potency": "inconclusive: 39.8 µM [inhibitor, single point]"}
{"smiles": "CN(Cc1cc(Cl)cc(Cl)c1)CC(C(=O)c1ccccc1)c1ccccc1", "note": "(configuration not stated)", "Potency": "inactive"}
{"smiles": "COc1ccccc1Nc1nn2c(=O)c3ccc(C(=O)NCCCOC(C)C)cc3nc2s1", "Potency": "inconclusive: 89.1 µM [inhibitor, single point]"}
{"smiles": "O=C(CCl)Nc1nc(-c2ccco2)c(-c2ccco2)s1", "Potency": "active: 12.6 µM"}
{"smiles": "CCNc1nc(NCC)nc(N(C)N)n1", "Potency": "inconclusive: 5.01 µM [inhibitor, partial curve, poor fit]"}
{"smiles": "NC(CSC1(c2cccc3ccccc23)c2ccccc2-c2ccccc21)C(=O)O", "note": "(configuration not stated)", "Potency": "inconclusive: 25.1 µM [inhibitor, partial curve, poor fit]"}
{"smiles": "O=C(Nc1ccccc1Cl)N1CCN(c2ccc3nnc(-c4ccc(F)cc4)n3n2)CC1", "Potency": "inconclusive: 28.2 µM [inhibitor, single point]"}
{"smiles": "COc1cc(-c2nc3c4ccccc4nc(=S)n3[nH]2)cc(OC)c1OC", "Potency": "inconclusive: 25.1 µM [inhibitor, partial curve, poor fit]"}
{"smiles": "NC(=O)c1ccsc1NC(=O)COC(=O)/C=C/c1ccccc1[N+](=O)[O-]", "Potency": "inconclusive: 15.8 µM [inhibitor, full curve, poor fit]"}
{"smiles": "CN(C)S(=O)(=O)c1ccc2c(c1)N(CC(=O)N1CCN(c3ccc(F)cc3)CC1)CCS2", "Potency": "inactive"}
{"smiles": "CCOC(=O)N1C2=NC(C(=O)OC)=C(C(=O)OC)[C@@H]3N(Cc4ccccc4)c4ccccc4[C@]23C[C@H]1C(=O)OC", "Potency": "inconclusive: 100 µM [inhibitor, partial curve, poor fit]"}
{"smiles": "CCNc1nc(NCC)n2c(SCC(=O)Nc3ccccc3C(F)(F)F)nnc2n1", "Potency": "inconclusive: 17.8 µM [inhibitor, partial curve, poor fit]"}
{"smiles": "Cc1cccc(N2CCN(C(=O)CS(=O)(=O)c3cccc4nsnc34)CC2C)c1", "note": "(configuration not stated)", "Potency": "inactive"}
{"smiles": "CC(=O)Oc1ccc2c(=O)c(Oc3ccccc3)c(C)oc2c1OC(C)=O", "Potency": "inconclusive: 25.1 µM [inhibitor, partial curve, poor fit]"}
{"smiles": "CC(C)Cc1ccc(C(C)NC(=O)Cc2ccc(S(=O)(=O)N3CCOCC3)s2)cc1", "note": "(configuration not stated)", "Potency": "inactive"}
{"smiles": "COC(=O)c1ccc(/C=C/C(=O)OCC(=O)Nc2ncc(Cl)cc2Cl)cc1", "Potency": "inactive"}
{"smiles": "NC(=O)C1CCN(C(=O)c2ccc(OCC(=O)Nc3cccc(C(F)(F)F)c3)cc2)CC1", "Potency": "inactive"}
{"smiles": "Cc1ccc(OCCNC(=O)CCNS(=O)(=O)c2ccc3ccccc3c2)cc1", "Potency": "inconclusive: 100 µM [inhibitor, partial curve, poor fit]"}
{"smiles": "Cc1ccc(/C=C/C(=O)c2cc(Br)ccc2OC(=O)c2ccco2)cc1", "Potency": "inconclusive: 39.8 µM [inhibitor, partial curve, poor fit]"}
